Measurements taken from the supplement of paper PMC11417369.
± gives the standard deviation of the averaged measurements. Some of the results follow.

System: PfAP2-G AP2 domain (GST-tagged)
Test: gcPBM binding intensity (ln(normalized median fluorescence intensity)); higher = stronger DNA binding
Procedure, shortened: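 GST-fused DNA-binding domains of P. falciparum, expressed in E. coli, were applied at about 25 μg on average for 1 h to an Agilent 4 × 180k array of primer-extended double-stranded 36-bp intergenic genomic probes and negative controls. Binding intensity is the highest Masliner-normalised natural-log median intensity across replicate spots of either probe orientation, measured with Alexa488 anti-GST antibody and a 488 nm scan.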

Row | Sequence | gcPBM binding intensity (ln)
1 | TTTTTTTTTTTTTTTGTGCACAATATAATTTTTAAT [GTGCAC_site9747] | 10.3 ± 0.56
2 | TACGGATATATATATTGTACATATATATAATATATA [XGTACX_site3156] | 10.9 ± 0.52
3 | AAAAAATACATACATACACACATATATATATATATA [CACACA_site913] | 10.2 ± 0.4
4 | TCCTCTTATAATTCGTGTCCACATATATCATACAAT [XGTACX_site1523] | 11.1 ± 0.64
5 | ATAAAACAAATGAGTACACACACATAAAAATTGAAA [CACACA_site7949] | 11.6 ± 1.2
6 | GAAAATTCTTAAGGCACACACATATAAGATATATAC [CACACA_site6410] | 10.24 ± 0.071
7 | TTATAATATATATCTGCATGTTGCTTTGGGGCTTTA [TGCATGCA_site712] | 9.84 ± 0.14
8 | TATATTAAACAATATACACACATTAATGTAGACATA [CACACA_site8889] | 10.1 ± 0.16
9 | TTTCAGACAAAAAAAAAAAAAAAAAAGAGGAGAATA [CACACA_negctrl_site254] | 9.495 ± 0.035
10 | AAACATTTATACAAAGCACACAATTTTTAACTTTTA [CACACA_site2627] | 9.925 ± 0.007
11 | TTTAAGCAAAGACACACACACATATTTATATTTATA [CACACA_site6295] | 9.99 ± 0.071
12 | AATAAAAAAAAAAAAAAAAAAAAAAACCTGAGGAGT [CACACA_negctrl_site1140] | 9.8 ± 0.18
13 | AACCTTTTAAGAGTTGCACACGTACAAAAAAAAAAA [CACACA_site9159] | 11.3 ± 0.91
14 | TTCATAGAATTATATATTTTAAAAAAAAAAATAATT [CACACA_negctrl_site175] | 9.52 ± 0.12
15 | TTTTTTATAGGACATGCATGTTGTAGAGCTGTATAT [TGCATGCA_site704] | 10.4 ± 0.34
16 | TAATATGCATAAAATTGTACAAACTTACATATAATA [XGTACX_site2752] | 10.9 ± 0.29
17 | TTTTCTTGACCTATTATTCTTCTCATAGTATAATAT [GTGCAC_negctrl_site641] | 10.1 ± 0.26
18 | TAATAAATAAAATAGAGTACAGGGATTTCATTAAAT [XGTACX_site8979] | 11.4 ± 0.82
19 | TATATTACTTATATTTGTACACAGAAATATAAATCA [XGTACX_site13] | 11.3 ± 0.87

Row | Sequence | gcPBM binding intensity (ln)
20 | TTTTTCATAAGAAGCACACAAAAAATGATAGAGAAT [CACACA_site1417] | 10.5 ± 0.35
21 | TGTCAAAATATGTATACACACAATTTTTTTTTTTTT [CACACA_site2465] | 9.81 ± 0.22
22 | ATTCATTTACCAATGGTGCAATATATTTTTATAATG | 10.2 ± 0.18
23 | AAAGAAAGTACCTTCACACATATAAGAATATAATAT [CACACA_site5214] | 10.8 ± 0.68
24 | AAAAAAAAAATATATTGTACAAATAGATATGTCAAT [XGTACX_site122] | 10.7 ± 0.3
25 | TGAAATACGAATTATTGTACTTATGTGTAAGATGGC [XGTACX_site4472] | 11.3 ± 0.81
26 | AAACAAATATGTAGCACACATTCACATAATATATTT [CACACA_site2335] | 10.2 ± 0.18
27 | TTATTTATGTGTAGGGCATGCAATCGTGTTTTTAAA [TGCATGCA_site735] | 10.3 ± 0.3
28 | GTATTTATAATACGGCGTACATAAAAAAAAAAAAAA [XGTACX_site3705] | 11.6 ± 1
29 | AATATATTTTAATATACACACATATATGCTCTTTAA [CACACA_site9371] | 9.95 ± 0.12
30 | TTATTTTTTTTGTGTTGTACAATTTATTACTACTAA [XGTACX_site346] | 11.3 ± 0.82
31 | AGAAAAAAATAATGTACACACACATAGATGTTTATA [CACACA_site4271] | 11.3 ± 0.73
32 | TCAATAATAACAAATGAACACACATATATATGAGCA [CACACA_site8663] | 9.795 ± 0.007
33 | TTTTTTTTTTAATTAACACACATAAATATATATATA [CACACA_site3275] | 9.93 ± 0.45
34 | GAACAATAAATAAAAAAAATAAAAATAAAAATAAAA [TGCATGCA_negctrl_site35] | 9.58
35 | ATAAGTAAATTAGATACACACATGATATCATACATA [CACACA_site1623] | 9.97 ± 0.028
36 | AAAAAAAAAAAAAAAAGTACACAGTAGAATTAAATG [XGTACX_site1843] | 11.7 ± 0.92
37 | ATAAATTTTTTTTTTTTTTTTTTTCTTTTTCTTTGT [CACACA_negctrl_site1231] | 9.42 ± 0.099
38 | CATCTCATATTTTGAAGTACTAAGAAAAGATATAAA [XGTACX_site6867] | 11.2 ± 0.64

Row | Sequence | gcPBM binding intensity (ln)
39 | AATATATTTGTGTATGTGCGCAGTGTGTAATTTATT [GTGCAC_site9765] | 10.5 ± 0.28
40 | ATATATACCTAAGACACACACATATATATATATATA [CACACA_site764] | 10.2 ± 0.2
41 | AAATGTACAGGACGCACACACATATATATATATATA [CACACA_site3674] | 11.2 ± 0.87
42 | AAGGAAAATATTAACTGTACATATAAAATATATATA [XGTACX_site5310] | 11.2 ± 0.67
43 | TATCATTTATATATGTGTACTTATTTATTTATTTAT [XGTACX_site7961] | 11.5 ± 0.8
44 | TCTTTATCCTTTCTCTTTTTATTAATTATAATATTC [TGCATGCA_negctrl_site584] | 9.985 ± 0.049
45 | ATTATTTGTAATATAACACACACAAAAAAAGACTCG [CACACA_site8487] | 10.3 ± 0.23
46 | ATTATACCGTATTTTGCATGTAGTATTTTCATTTTA [TGCATGCA_site1021] | 10.3 ± 0.11
47 | ATTAATTATGTATTTCAACAAAGAAGTGTTATATAT [GTGCAC_negctrl_site215] | 10.1 ± 0.16
48 | AAAGAAAATTAAAAAGAACACACAAATATATATATA [CACACA_site9196] | 9.98 ± 0.46
49 | AATGAATCCTTATATACACACATTATTATAGTATAG [CACACA_site7454] | 9.95 ± 0.042
50 | ATTTATATATATTTATGTACGTATTAATTTTTTTTT [XGTACX_site3877] | 11.5 ± 0.88
51 | ATGTATAATATTTTCACACACAAGAAAAAAGAAAAG [CACACA_site3591] | 10.2 ± 0.18
52 | TTTTATTTATTCCTACTTTTTTATTTATTTATTTAA [XGTACX_negctrl_site415] | 9.79 ± 0.071
53 | ACATTATGTCATAAATGTACACATACATATACATAC [XGTACX_site8998] | 11.2 ± 0.79
54 | CGTATGTATATATATATACACACTTCTGTGATACGA [CACACA_site1949] | 10 ± 0.17
55 | TATCTACTTAAATAAAATAAAAATAATAAATAAAAA [TGCATGCA_negctrl_site312] | 9.77 ± 0.18
56 | ATAAAACAAAGACACACACACATACACAAAAAAAAA [CACACA_site7752] | 10.4 ± 0.47
